According to the supplement of paper PMC11417369:
Some of the results follow.

The sequences below were run on PfAP2-HC AP2 domain (GST-tagged) (assay: gcPBM binding intensity (ln(normalized median fluorescence intensity)); higher = stronger DNA binding).
In short: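 Binding intensity is the highest Masliner-normalised natural-log median intensity over replicate spots in either probe orientation. To obtain it, GST-tagged P. falciparum DNA-binding domains made in E. coli were incubated for 1 h on an Agilent 4 × 180k array of primer-extended double-stranded 36-bp intergenic genomic probes plus negative controls. Detection used Alexa488 anti-GST antibody with scanning at 488 nm.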

Sequence	gcPBM binding intensity (ln)
AAAATAAAATTTACTTGTACTAAAGGGATACGCGCA [XGTACX_site1453]	9.69
GTCACAAAATAAATTAAACACACAACATCATATATG [CACACA_site8182]	10.3
AATATAAATTTATATTGTACATATTTTATTATATGT [XGTACX_site905]	9.67
AAATAAAATCATAATGTGCGCATATAAATTTGTAGG [GTGCAC_site9662]	10.1
ATATATATATATGAAAGTACACATCTATTTTTTCTT [XGTACX_site6059]	9.64
AAGGTAGATATATTTAGTACGTAATTTTTTTTTTTT [XGTACX_site7288]	9.64
TAATATAATATATAGGTGCAATATTAACAAAAATTT	9.61
ATTAATATGAATAAATGTACAAATGAATGATTACAT [XGTACX_site6044]	9.62
ATAATGTGTTAGGCGTGTACACAATTGTATGGTTTA [XGTACX_site2377]	9.85
GACATAAGATAATTACACATTGTTTCCTCAATAATA [CACACA_negctrl_site1616]	9.53
TTTCTTTAATATATAGTGCATGTAAATTTTACAATA [GTGCAC_site9679]	9.34
TAAGTAAAAAATTAAAAAGATTACAGGGGGGGAAGG [XGTACX_negctrl_site491]	9.72
ATTTTAACGAATATATGTACATAAAAAAAAAAAAGA [XGTACX_site8750]	9.77
AAAATAAGGACTGTTGTGCACTGGATTTGTGGTTAC [GTGCAC_site9830]	9.89
AAAAAAAAAAACAGTTGTACATTTATTTATATATTA [XGTACX_site217]	9.61
TATATACAAATATGTACACACATTACAGATGTACAT [CACACA_site6586]	10
TAGAAAAAATAAAATAGTACACATCCAAAAAAAAAA [XGTACX_site7829]	9.71
CCAAACAAAAAAAAAAGTACATAAAACACCTATTTG [XGTACX_site5645]	9.66
AATATATAAATATATACACACAAAAACATATATATA [CACACA_site1318]	9.99
ATAATTAGGGTGTATTTCATTTCATTTCATTTTATT [CACACA_negctrl_site1418]	9.88
AACGTATTATTTATCTGTACAAAATAATAACGTATT [XGTACX_site813]	9.6
TTTTGTTTTTTCAATGTGCACTTAGGATGTTTTTAT [GTGCAC_site9565]	9.9
ATCCAAATTAATAATAGTACTTTTAAGTCCTATGTA [XGTACX_site2452]	9.56
TAAATAAAAATACAGTGTACTTTTTTCTATTTAAAA [XGTACX_site3288]	9.41
CAAACAAATTGTGAAACACACATATATATATATATA [CACACA_site2001]	9.71
